# Results: ChEMBL document CHEMBL1201862, “PubChem BioAssay data set” (2004)
# System: NCI-H322M
# Test: NCI anticancer screen, dose series, 48 h
row,Structure (SMILES),GI50
1,CC(=O)NC1C(OCc2ccccc2)OC(CO)C(O)C1OC(C)C(=O)NC(C)C(=O)NC(CCC(=O)NCCCCNc1c2ccccc2nc2cccc([N+](=O)[O-])c12)C(N)=O (stereo not drawn),active: 0.0585 µM
2,O=Cc1ccc(Oc2c3ccccc3nc3ccccc23)cc1,inactive: 12.6 µM
3,Brc1ccc(N2C[N+](c3ccc(Br)cc3)=NC(c3ccccc3)=N2)cc1,inactive: 18.2 µM
4,CCCc1nn(C)c(CCC(=O)N(Cc2ccccc2)Cc2ccccc2)c1CC,inactive: > 100 µM
5,CCn1c(=O)nc2n(-c3ccccc3)c3ccccc3nc-2c1=O,inactive: 25.4 µM
6,COc1ccc(-c2c3c(n(C4OC(CO)C(O)C(O)C4O)c(=S)c2C#N)CCC3)cc1 (stereo not drawn),inactive: > 100 µM
7,CC1CN(c2cc3c(cc2F)c(=O)c(C(=O)O)cn3-c2ccc(F)cn2)CC(C)N1 (stereo not drawn),inactive: > 100 µM
8,CN(Cc1cnc2nc(N)nc(N)c2n1)c1ccc(C(=O)NCCCS(=O)(=O)O)cc1,inactive: > 100 µM
9,CCCC(=O)Oc1ccc(/C=N/NC(N)=S)nc1,inactive: > 100 µM
10,O=C1C2=C(c3ccccc31)C(c1ccccc1Cl)N1C(=O)CSC1=N2 (stereo not drawn),inactive: > 100 µM
11,CC(=O)C1C(=O)C(=O)N(c2ccc([N+](=O)[O-])cc2[N+](=O)[O-])C1=O (stereo not drawn),inactive: > 100 µM
12,O=P1(Oc2ccccc2)C(c2ccccc2)C(c2ccccc2)=NN1c1ccccc1 (stereo not drawn),inactive: 24.9 µM
13,COc1cc2c(cc1C)NC(=O)/C2=C/c1c(Cl)n(C)c2ccccc12,inactive: 12.1 µM
14,c1csc(-c2cc(-c3ccsc3)c(-c3cccs3)s2)c1,inactive: 48.6 µM
15,CC(=O)OC1COC(N2C(=O)/C(=N\Nc3ccc([N+](=O)[O-])cc3)c3cc(Br)c([N+](=O)[O-])cc32)C(OC(C)=O)C1OC(C)=O (stereo not drawn),inactive: 69.3 µM
16,NC1=NN(c2ccccc2)C(=O)C1/C(=N\NC(=O)c1cc2ccccc2cc1O)C(=O)Nc1cccc(C(F)(F)F)c1 (stereo not drawn),inactive: 44.5 µM
17,CC(=O)O[C@@H]1C[C@]2(C(=O)c3ccccc3)C(=O)C(=O)S[C@]12c1ccccc1,inactive: > 100 µM
18,CC1=NN(C(=O)c2ccc(Cl)cc2)C(=O)/C1=C/c1ccc(O)cc1,inactive: > 100 µM
19,O=c1[nH]nc2ccccc2c1Cc1ccccc1,inactive: > 100 µM
20,O=C(CCc1ccc(O)cc1)NCCc1cccc(O)c1,inactive: > 50 µM
21,Cc1ccc2c(O)cc(-c3csc4ccccc34)nc2n1,active: 0.0376 µM

row,Structure (SMILES),GI50
1,CCCC1c2c(ccc3ccccc23)Oc2ccc3ccccc3c21,inactive: > 100 µM
2,CCCCOC(=O)C(=O)C(CC(CC)C(=O)c1ccccc1)C(=O)C=C(C)C (stereo not drawn),inactive: > 100 µM
3,CC(C)(Cl)C(Cl)CC/C(CBr)=C(\Cl)CCl (stereo not drawn),inactive: 15.9 µM
4,CC(C)C(/C=C/c1ccccc1)=N\NC(=O)N/N=C(/C=C/c1ccccc1)C(C)C,inactive: 39 µM
5,CCOC(=O)/C(=C/c1ccc(Cl)cc1)N(CC)CC,inactive: > 100 µM
6,CC1(C(=O)O)C[C@](C)(C(=O)OCc2ccccc2)C[C@](C)(C(=O)OCc2ccccc2)C1 (stereo partly drawn),inactive: 36.1 µM
7,COc1cc(/C=C/C(=O)Oc2ccccc2)ccc1C(=O)O/C=C/c1ccccc1,inactive: > 100 µM
8,CC1(C)C(=S)C(C)(C)C1=S,inactive: > 100 µM
9,CCOC(=O)CC[C@H](N)C(=O)N[C@H](Cc1ccc(N(CCCl)CCCl)cc1)C(=O)OCC,inactive: 18.5 µM
10,O=S(=O)(NC(c1ccccc1)(c1cc2ccccc2[nH]1)c1cc2ccccc2n1S(=O)(=O)c1ccccc1)c1ccccc1 (stereo not drawn),inactive: > 100 µM
11,Cn1cnc(N2CCCC2)c(C#N)c1=S,inactive: > 100 µM
12,Cc1nnc2n1-c1ccccc1-c1[nH]c3ccccc3c1C2,inactive: > 100 µM
13,Cc1c2ccncc2c(C)c2c1[nH]c1ccc(OCCN(C)C)cc12,active: 0.0891 µM
14,CC1=NN(C(=O)CC(=O)Nc2cccc(Cl)c2)C(=O)C1/N=N/c1ccc(S(N)(=O)=O)cc1 (stereo not drawn),inactive: > 100 µM
15,Nc1cc(F)ccc1CC(=O)O,inactive: > 100 µM
16,Cc1ccc2c(O)cc(-c3cc(C)sc3C)nc2n1,inactive: 5.69 µM
17,Cc1cc(S(=O)(=O)Nc2n[nH]c(-c3ccc(Cl)cn3)n2)c(S)cc1Cl,inactive: 48.8 µM
18,COc1c(C)c(C/C=C(\C)CC/C=C(\C)CC/C=C(\C)CCC=C(C)C)c(OC)c2ccccc12,inactive: > 100 µM
19,CC(=O)OC1CC2CCN3C(=O)c4cc5c(cc4[C@H](C1OC(C)=O)C23)OCO5 (stereo partly drawn),inactive: > 100 µM
20,NC1=NN(c2ccccc2)C(=O)C1C(=O)CCC(=O)Nc1cccc(Cl)c1 (stereo not drawn),inactive: > 100 µM
21,Nc1ccc2c(SCc3ccc([N+](=O)[O-])cc3)c3ccccc3nc2c1,inactive: 26.2 µM

row,Structure (SMILES),GI50
1,CN(C)C1(N(C)C)Oc2c(c(=O)n(C)c(=O)n2C)C(c2ccccc2)C1(F)F (stereo not drawn),inactive: > 100 µM
2,COC(=O)C(Cc1nc2ccc(Cl)cc2nc1O)C(=O)C(=O)Nc1cc(C)ccc1C (stereo not drawn),inactive: > 100 µM
3,CC1=NN(C(=O)Cc2ccccc2)C(=O)/C1=C\c1ccco1,inactive: > 100 µM
4,COc1cc(C2c3cc4c(cc3[C@@H](OCCN)[C@H]3COC(=O)C23)OCO4)cc(OC)c1O (stereo partly drawn),inactive: 2.43 µM
5,CC(C)=CCC/C(C)=C/CC/C(C)=C/CCN(C)CCO,inactive: 11 µM
6,CC(=O)O[C@@]12[C@@H]3O[C@@]4(O)C[C@]5(C)[C@H]6C[C@@](C(C)C)(O[C@H]5c5ccoc5)O[C@H]1[C@]6(C4)O[C@]2(O)C(C)=CC3(C)C,inactive: > 100 µM
7,C=C([C@@]1(O)C[C@H]2[C@H](CCC2(OC)OC)[C@@H]2c3ccccc3O[C@@H]21)[Si](C)(C)C,inactive: > 100 µM
8,COc1ccc(-n2c(=O)n(C)c(=O)n2-c2ccc(OC)cc2)cc1,inactive: > 100 µM
9,CCN(CC)C(=O)COc1ccc(Br)cc1Br,inactive: > 100 µM
10,Cn1cc(NC(=O)c2cc(NC(=O)CCCCCCC(=O)Nc3cc(C(=O)Nc4cc(C(=O)NCCC(=N)N)n(C)c4)n(C)c3)cn2C)cc1C(=O)NCCC(=N)N,inactive: 39.4 µM
11,O=C1OCC2=Nc3cccc4cccc(c34)N12,inactive: 6.4 µM
12,CO[C@@H]1C[C@H]2[C@@H]3CC[C@H]([C@@H](C)CO)[C@@]3(C)CC[C@@H]2[C@@]2(C)CC[C@H]3C[C@]312,inactive: 75.9 µM
13,O=c1[nH]nc(Cc2ccc(Cl)cc2)n1/N=C/c1ccco1,inactive: > 100 µM
14,Cc1cc(O)no1 [HYMEXAZOL],inactive: > 100 µM
15,Cc1ccc(C2=C(c3ccc(C)cc3)C(c3ccc(C)cc3)=C(c3ccc(C)cc3)C2=O)cc1,inactive: > 100 µM
16,CC(C)=NNC1=NC(C)(C)P(=O)(NNc2ncccn2)S1 (stereo not drawn),inactive: > 100 µM
17,CCOc1cc(NC(C)=O)ccc1C(=O)NNS(=O)(=O)c1ccc(NC(C)=O)cc1,inactive: 59.7 µM
18,O=C1C=CC=C/C1=C1\N=C(c2ccccc2OCC(=O)c2ccccc2)SS1,inactive: > 100 µM
19,Cc1ccccc1-n1c(=S)[nH]c2c(sc(=O)n2-c2ccccc2C)c1=O,inactive: > 100 µM
20,O=C(N/C(=C\NC1=NCCS1)C(=O)N1CSC[C@@H]1C(=O)O)c1ccccc1,inactive: > 100 µM
21,C[C@]12CC[C@H](O)CC1=CC[C@@H]1[C@@H]2CC[C@]2(C)c3nc(Cl)ccc3C[C@@H]12,inactive: 29.9 µM

#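 Dose response: 5 concentrations. Exposure: 48 h. Format: 96-well plates. Endpoint: linear interpolation; highest concentration if not reached. Here, GI50 denotes the concentration required for 50% inhibition of growth.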 The source made the active and inactive calls. No stated cut-off is given here; in the data, active = GI50 up to about 1.1 µM and inactive = higher.
